Measured values published in the supplement of paper PMC8728848.
The list shows a part of the results.

What was measured:
Assay in all cases: glycan array binding signal (z-score within array); higher = stronger binding
Conditions in all cases: glycan notation: IUPAC condensed, linker removed
[1] = biological target: Fuc(a1-2)Gal(b1-4)[Fuc(a1-3)]GlcNAc
Summary of the method: (§1)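 Glycan array binding is given as a within-array Z-score, which can be read as non-binding when negative. The arrays, 3228 of them, came from the Consortium for Functional Glycomics database and were retained only where the protein sequence was available. Z-scores were averaged across arrays of the same protein sequence at different concentrations or buffers and across linkers.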

[2] = biological target: Fuc(a1-2)Gal(b1-4)[Fuc(a1-3)]GlcNAc(b1-2)Man(a1-3)[Fuc(a1-2)Gal(b1-4)[Fuc(a1-3)]GlcNAc(b1-2)Man(a1-6)]Man(b1-4)GlcNAc(b1-4)[Fuc(a1-6)]GlcNAc
Summary of the method: as §1

[3] = biological target: Fuc(a1-2)Gal(b1-4)[Fuc(a1-3)]GlcNAc(b1-2)[Fuc(a1-2)Gal(b1-4)[Fuc(a1-3)]GlcNAc(b1-4)]Man(a1-3)[Fuc(a1-2)Gal(b1-4)[Fuc(a1-3)]GlcNAc(b1-2)Man(a1-6)]Man(b1-4)GlcNAc(b1-4)GlcNAc
Summary of the method: as §1

[4] = biological target: Fuc(a1-2)Gal(b1-4)[Fuc(a1-3)]GlcNAc(b1-3)Gal(b1-4)[Fuc(a1-3)]GlcNAc
Summary of the method: as §1

[5] = biological target: Fuc(a1-2)Gal(b1-4)[Fuc(a1-3)]GlcNAc(b1-3)Gal(b1-4)[Fuc(a1-3)]GlcNAc(b1-3)Gal(b1-4)[Fuc(a1-3)]GlcNAc
Summary of the method: as §1

[6] = biological target: Fuc(a1-2)Gal(b1-4)[Fuc(a1-3)]GlcNAc(b1-3)GalNAc
Summary of the method: as §1

[7] = biological target: Fuc(a1-2)Gal(b1-4)[Fuc(a1-3)]GlcNAc(b1-3)[Neu5Ac(a2-6)Gal(b1-4)GlcNAc(b1-6)]Gal(b1-4)Glc
Summary of the method: as §1

[8] = biological target: Fuc(a1-2)Gal3S(b1-4)GlcNAc
Summary of the method: as §1

[9] = biological target: Fuc(a1-2)Gal6S(b1-3)GlcNAc
Summary of the method: as §1

[10] = biological target: Fuc(a1-2)Gal6S(b1-3)GlcNAc6S
Summary of the method: as §1

Fuc(a1-2)Gal6S(b1-4)Glc = biological target: Fuc(a1-2)Gal6S(b1-4)Glc
Summary of the method: as §1

[11] = biological target: Fuc(a1-2)Gal6S(b1-4)Glc6S
Summary of the method: as §1

Fuc(a1-2)[Gal(a1-3)]Gal = biological target: Fuc(a1-2)[Gal(a1-3)]Gal
Summary of the method: as §1

[12] = biological target: Fuc(a1-2)[Gal(a1-3)]Gal(b1-3)GalNAc
Summary of the method: as §1

[13] = biological target: Fuc(a1-2)[Gal(a1-3)]Gal(b1-3)GalNAc(b1-3)Gal(a1-4)Gal(b1-4)Glc
Summary of the method: as §1

[14] = biological target: Fuc(a1-2)[Gal(a1-3)]Gal(b1-3)GlcNAc
Summary of the method: as §1

[15] = biological target: Fuc(a1-2)[Gal(a1-3)]Gal(b1-3)GlcNAc(b1-2)Man(a1-3)[Fuc(a1-2)[Gal(a1-3)]Gal(b1-3)GlcNAc(b1-2)Man(a1-6)]Man(b1-4)GlcNAc(b1-4)GlcNAc
Summary of the method: as §1

[16] = biological target: Fuc(a1-2)[Gal(a1-3)]Gal(b1-3)GlcNAc(b1-2)Man(a1-3)[Fuc(a1-2)[Gal(a1-3)]Gal(b1-3)GlcNAc(b1-2)Man(a1-6)]Man(b1-4)GlcNAc(b1-4)[Fuc(a1-6)]GlcNAc
Summary of the method: as §1

[17] = biological target: Fuc(a1-2)[Gal(a1-3)]Gal(b1-3)GlcNAc(b1-3)GalNAc
Summary of the method: as §1

[18] = biological target: Fuc(a1-2)[Gal(a1-3)]Gal(b1-3)GlcNAc(b1-6)GalNAc
Summary of the method: as §1

[19] = biological target: Fuc(a1-2)[Gal(a1-3)]Gal(b1-4)Glc
Summary of the method: as §1

[20] = biological target: Fuc(a1-2)[Gal(a1-3)]Gal(b1-4)GlcNAc
Summary of the method: as §1

[21] = biological target: Fuc(a1-2)[Gal(a1-3)]Gal(b1-4)GlcNAc(b1-2)Man
Summary of the method: as §1

[22] = biological target: Fuc(a1-2)[Gal(a1-3)]Gal(b1-4)GlcNAc(b1-2)Man(a1-3)[Fuc(a1-2)[Gal(a1-3)]Gal(b1-4)GlcNAc(b1-2)Man(a1-6)]Man(b1-4)GlcNAc(b1-4)GlcNAc
Summary of the method: as §1

[23] = biological target: Fuc(a1-2)[Gal(a1-3)]Gal(b1-4)GlcNAc(b1-2)Man(a1-3)[Fuc(a1-2)[Gal(a1-3)]Gal(b1-4)GlcNAc(b1-2)Man(a1-6)]Man(b1-4)GlcNAc(b1-4)[Fuc(a1-6)]GlcNAc
Summary of the method: as §1

[24] = biological target: Fuc(a1-2)[Gal(a1-3)]Gal(b1-4)GlcNAc(b1-3)GalNAc
Summary of the method: as §1

[25] = biological target: Fuc(a1-2)[Gal(a1-3)]Gal(b1-4)GlcNAc(b1-3)[Fuc(a1-2)[Gal(a1-3)]Gal(b1-4)GlcNAc(b1-6)]GalNAc
Summary of the method: as §1

[26] = biological target: Fuc(a1-2)[Gal(a1-3)]Gal(b1-4)GlcNAc(b1-6)GalNAc
Summary of the method: as §1

[27] = biological target: Fuc(a1-2)[Gal(a1-3)]Gal(b1-4)[Fuc(a1-3)]Glc
Summary of the method: as §1

[28] = biological target: Fuc(a1-2)[Gal(a1-3)]Gal(b1-4)[Fuc(a1-3)]GlcNAc
Summary of the method: as §1

[29] = biological target: Fuc(a1-2)[Gal(a1-3)]Gal(b1-4)[Fuc(a1-3)]GlcNAc(b1-3)GalNAc
Summary of the method: as §1

[30] = biological target: Fuc(a1-2)[Gal(a1-4)]Gal(b1-4)GlcNAc
Summary of the method: as §1

[31] = biological target: Fuc(a1-2)[GalNAc(a1-3)]Gal
Summary of the method: as §1

[32] = biological target: Fuc(a1-2)[GalNAc(a1-3)]Gal(b1-3)GalNAc(a1-3)[Fuc(a1-2)]Gal(b1-4)GlcNAc
Summary of the method: as §1

[33] = biological target: Fuc(a1-2)[GalNAc(a1-3)]Gal(b1-3)GalNAc(b1-3)Gal(a1-4)Gal(b1-4)Glc
Summary of the method: as §1

[34] = biological target: Fuc(a1-2)[GalNAc(a1-3)]Gal(b1-3)GlcNAc
Summary of the method: as §1

[35] = biological target: Fuc(a1-2)[GalNAc(a1-3)]Gal(b1-3)GlcNAc(b1-2)Man(a1-3)[Fuc(a1-2)[GalNAc(a1-3)]Gal(b1-3)GlcNAc(b1-2)Man(a1-6)]Man(b1-4)GlcNAc(b1-4)GlcNAc
Summary of the method: as §1

[36] = biological target: Fuc(a1-2)[GalNAc(a1-3)]Gal(b1-3)GlcNAc(b1-2)Man(a1-3)[Fuc(a1-2)[GalNAc(a1-3)]Gal(b1-3)GlcNAc(b1-2)Man(a1-6)]Man(b1-4)GlcNAc(b1-4)[Fuc(a1-6)]GlcNAc
Summary of the method: as §1

B1: AT5G01260(PC)(40) (Arabidopsis thaliana), Q9LFB0 (protein)
chain: MIGIGRTLTSSSPSKIILEDLPPGIYRYGTEIFTSVPRKTFHHIKFLRLDSAQSSRILKPVPLRSSSIKDSQVNVEDEEIEASNKTVRVRFQLRKECVFGEHFFIVGDDPVFGGLWDPETALPLNWSDGNVWTVDLDLPVGRLVEFKLLLKAQTGEILWQPGPNRALETWETNKTIRICEDWDNADLQMMIEEDFVPYTNISSIGSEDEDEVLGSVQQNSSVVAVENAGYVSDESAQNSSFSIQSEKTMEPSNGALTAREVIKEAMFTEEESPVLVPGLIPLSDLDNEQVEVINEGKAETFPEVDKKQEPKAERNKKAKVKAISLFEKSEQEAVKSVEQRQYNAVEEEQQRLETEPLGTPDVLFENDIQWGRRTLYKLLSNFRLF
Question: Which “glycan array binding signal (z-score)” value [1] does the source give for B1 here?
Answer: The value was -0.291.

Question: What about the “glycan array binding signal (z-score)” value [2] of the same binder?
Answer: Its value is -0.616.

Question: What about the “glycan array binding signal (z-score)” value [3] of the same binder?
Answer: The value was 0.175.

Question: What about the “glycan array binding signal (z-score)” value [4] of the same binder?
Answer: Its value is -0.004.

Question: And the “glycan array binding signal (z-score)” value [5]?
Answer: Its value is -0.725.

Question: And the “glycan array binding signal (z-score)” value [6]?
Answer: The value was 0.378.

Question: And the “glycan array binding signal (z-score)” value [7]?
Answer: The value was -0.201.

Question: What about the “glycan array binding signal (z-score)” value [8] of the same binder?
Answer: The value was -0.755.

Question: What about the “glycan array binding signal (z-score)” value [9] of the same binder?
Answer: The value was -0.048.

Question: And the “glycan array binding signal (z-score)” value [10]?
Answer: Its value is 0.127.

Question: And the “glycan array binding signal (z-score)” value (Fuc(a1-2)Gal6S(b1-4)Glc)?
Answer: Its value is -0.151.

Question: And the “glycan array binding signal (z-score)” value [11]?
Answer: The value was -0.355.

Question: What about the “glycan array binding signal (z-score)” value (Fuc(a1-2)[Gal(a1-3)]Gal) of the same binder?
Answer: The value was 0.732.

Question: What about the “glycan array binding signal (z-score)” value [12] of the same binder?
Answer: The value was -0.341.

Question: What about the “glycan array binding signal (z-score)” value [13] of the same binder?
Answer: Its value is 0.036.

Question: What about the “glycan array binding signal (z-score)” value [14] of the same binder?
Answer: Its value is 0.172.

Question: And the “glycan array binding signal (z-score)” value [15]?
Answer: The value was -0.244.

Question: What about the “glycan array binding signal (z-score)” value [16] of the same binder?
Answer: Its value is -0.156.

Question: And the “glycan array binding signal (z-score)” value [17]?
Answer: The value was -0.485.

Question: And the “glycan array binding signal (z-score)” value [18]?
Answer: The value was 0.179.

Question: And the “glycan array binding signal (z-score)” value [19]?
Answer: The value was -0.063.

Question: And the “glycan array binding signal (z-score)” value [20]?
Answer: The value was -0.786.

Question: What about the “glycan array binding signal (z-score)” value [21] of the same binder?
Answer: Its value is -0.675.

Question: What about the “glycan array binding signal (z-score)” value [22] of the same binder?
Answer: The value was -0.143.

Question: What about the “glycan array binding signal (z-score)” value [23] of the same binder?
Answer: Its value is 0.087.

Question: And the “glycan array binding signal (z-score)” value [24]?
Answer: Its value is 0.117.

Question: What about the “glycan array binding signal (z-score)” value [25] of the same binder?
Answer: Its value is -0.106.

Question: What about the “glycan array binding signal (z-score)” value [26] of the same binder?
Answer: The value was -0.256.

Question: And the “glycan array binding signal (z-score)” value [27]?
Answer: Its value is 0.81.

Question: What about the “glycan array binding signal (z-score)” value [28] of the same binder?
Answer: The value was -0.013.

Question: And the “glycan array binding signal (z-score)” value [29]?
Answer: Its value is 0.129.

Question: And the “glycan array binding signal (z-score)” value [30]?
Answer: Its value is 0.021.

Question: And the “glycan array binding signal (z-score)” value [31]?
Answer: Its value is -0.156.

Question: And the “glycan array binding signal (z-score)” value [32]?
Answer: Its value is -0.43.

Question: And the “glycan array binding signal (z-score)” value [33]?
Answer: The value was -0.657.

Question: And the “glycan array binding signal (z-score)” value [34]?
Answer: Its value is -0.735.

Question: What about the “glycan array binding signal (z-score)” value [35] of the same binder?
Answer: Its value is -0.051.

Question: What about the “glycan array binding signal (z-score)” value [36] of the same binder?
Answer: The value was 0.158.
